Several values for one entry are separate records, joined by “and”; a condition that tells them apart may be missing. Equal values may be shown once. Inconclusive results, whose numbers are uncertain, are shown with a selection of clear calls. For some assays here: A potency beside an inconclusive call is a rough fit, not a confirmed value. Activity calls are given as the source filed them. Calls come from the whole dose curve; as a rule, active = well fitted curve in the direction sought with a large enough effect; inconclusive = small, poorly fitted or top-dose-only effect, or another doubt; inactive = no such curve, though single readings can be large; an effect the other way counts as inactive or inconclusive.
Legend:
[1] = qHTS of pediatric cancer cell lines to identify multiple opportunities for drug repurposing: Primary screen for NB-EBc1 cells (AID 1347095); note: potency is the fitted concentration of half-maximal effect
Method in brief: (§1)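 Phenotypic viability qHTS, 48 h compound exposure, CellTiter-Glo luminescence read-out; multi-concentration dosing so that potency and efficacy derive directly from the primary screen's curves.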

[2] = qHTS of pediatric cancer cell lines to identify multiple opportunities for drug repurposing: Primary screen for Saos-2 cells (AID 1347097); conditions: Saos-2 viability, CellTiter-Glo ATP luminescence, 48 h; activity change, negative = cytotoxic: at 46 µM (top of the series); note: nearly all actives have a fitted effect of over 40% in size; note: potency is the fitted concentration of half-maximal effect
Method in brief: as §1

[3] = qHTS of pediatric cancer cell lines to identify multiple opportunities for drug repurposing: Primary screen for SK-N-SH cells (AID 1347098); conditions: SK-N-SH viability, CellTiter-Glo luminescence, 48 h; activity change, negative = cytotoxic: at 57 µM (top of the series); note: nearly all actives have a fitted effect of over 65% in size; note: potency is the fitted concentration of half-maximal effect;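 for activity change, negative = cytotoxic: DMSO served as neutral control and bortezomib at 2.3 µM as positive control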
Method in brief: (§2)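 Cells (500-1,000/well) rested 5 h, then received compounds for 48 h; metabolically active cells were measured by CellTiter-Glo luminescence. Final concentrations spanned up to 46 µM (MIPE, 11-point) or 0.59 nM-46 µM (NPC, 8-point) in primary screens, 11-point in follow-ups.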

[4] = qHTS of pediatric cancer cell lines to identify multiple opportunities for drug repurposing: Primary screen for LAN-5 cells (AID 1347100); conditions: LAN-5 neuroblastoma viability, CellTiter-Glo luminescence, 48 h; activity change, negative = cytotoxic: at 46 µM (top of the series); note: potency is the fitted concentration of half-maximal effect
Method in brief: (§3)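 Cells (500-1,000/well) in growth media were settled 5 h at 37 degrees C, then given compounds for 48 h. Viability was read as CellTiter-Glo luminescence. Primary runs used MIPE at 11 points (0.78 nM-46 µM) and NPC at 8 points (0.59 nM-46 µM); follow-ups used 11 points.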

[5] = qHTS of pediatric cancer cell lines to identify multiple opportunities for drug repurposing: Primary screen for OHS-50 cells (AID 1347103); note: nearly all actives have a fitted effect of over 40% in size; note: potency is the fitted concentration of half-maximal effect
Method in brief: as §2

[6] = qHTS of pediatric cancer cell lines to identify multiple opportunities for drug repurposing: Primary screen for U-2 OS cells (AID 1347096); note: nearly all actives have a fitted effect of over 50% in size
Method in brief: as §3

[7] = qHTS of pediatric cancer cell lines to identify multiple opportunities for drug repurposing: Primary screen for BT-12 cells (AID 1347101); note: nearly all actives have a fitted effect of over 25% in size; note: potency is the fitted concentration of half-maximal effect
Method in brief: as §2

[8] = qHTS of pediatric cancer cell lines to identify multiple opportunities for drug repurposing: Primary screen for NB1643 cells (AID 1347099); note: nearly all actives have a fitted effect of over 50% in size; note: potency is the fitted concentration of half-maximal effect
Method in brief: as §1

[9] = qHTS of pediatric cancer cell lines to identify multiple opportunities for drug repurposing: Primary screen for RD cells (AID 1347104); note: potency is the fitted concentration of half-maximal effect; nearly all actives have a fitted effect of over 55% in size
Method in brief: as §1

[10] = qHTS of pediatric cancer cell lines to identify multiple opportunities for drug repurposing: Primary screen for Rh18 cells (AID 1347102); note: potency is the fitted concentration of half-maximal effect; nearly all actives have a fitted effect of over 65% in size
Method in brief: as §3
Tags give direction and shape of the fitted curve.

Structure (SMILES) | Potency [1] | Potency [2] | Potency [3] | Potency [4] | Potency [5] | Potency [6] | Potency [7] | Potency [8] | Potency [9] | Potency [10]
CC=CCC=CCCC(=O)[C@H]1O[C@@H]1C(N)=O | inconclusive: 33.2 µM [cytotoxic, single point] | active: 18.7 µM | inactive | inconclusive: 33.2 µM [cytotoxic, single point] | inactive | – | – | – | – | –
CC[C@H](C=C[C@@H](C)[C@H]1CC[C@H]2[C@@H]3CC=C4C[C@@H](O)CC[C@]4(C)[C@@H]3CC[C@]12C)C(C)C | inactive | – | – | – | – | inactive | inactive | – | – | –
c1ccc2c(Oc3nc(Nc4ccc(N5CCOCC5)cc4)c4ncn(C5CCCCC5)c4n3)cccc2c1 | inconclusive: 29.6 µM [cytotoxic, single point] | inactive | inactive | – | – | – | inconclusive: 21.7 µM [cytotoxic, partial curve, poor fit] | inactive | – | –
CCC(C)n1ncn(-c2ccc(N3CCN(c4ccc(OC[C@H]5CO[C@](Cn6cncn6)(c6ccc(Cl)cc6Cl)O5)cc4)CC3)cc2)c1=O (stereo not given in full) | inconclusive: 29.9 µM [cytotoxic, single point] and active: 1.05 µM | inconclusive: 0.59 µM [cytotoxic, partial curve, poor fit] | inconclusive: 0.541 µM [cytotoxic, full curve] | inconclusive: 21.1 µM [cytotoxic, partial curve] and inconclusive: 3.32 µM [cytotoxic, full curve] | inconclusive: 3.09 µM [cytotoxic, full curve] and inconclusive: 1.09 µM [cytotoxic, full curve] | – | inconclusive: 3.89 µM [cytotoxic, single point] and inconclusive: 1.93 µM [cytotoxic, full curve] | – | inconclusive: 4.22 µM [cytotoxic, full curve] and inconclusive: 2.64 µM [cytotoxic, full curve] | –
COc1cc(N2CCC(N3CCN(C)CC3)CC2)ccc1Nc1ncc(Cl)c(Nc2ccccc2S(=O)(=O)C(C)C)n1 | inconclusive: 0.935 µM [cytotoxic, full curve, poor fit] | inconclusive: 2.64 µM [cytotoxic, full curve, poor fit] | active: 4.82 µM | – | inconclusive: 1 nM [cytotoxic, full curve, poor fit] | – | inconclusive: 10.9 µM [cytotoxic, partial curve, poor fit] | inconclusive: 0.001 µM [cytotoxic, full curve, poor fit] | inconclusive: 1.87 µM [cytotoxic, full curve, poor fit] | inconclusive: 4.18 µM [cytotoxic, full curve, poor fit]
Nc1nc2c(ncn2COCCO)c(=O)[nH]1 | inconclusive: 16.6 µM [cytotoxic, partial curve, poor fit] | inconclusive: 15 µM [cytotoxic, partial curve, poor fit] | inactive | – | – | – | – | – | – | –
CCOC(=O)c1c(CSc2ccccc2)n(C)c2cc(Br)c(O)c(CN(C)C)c12 | inactive | inconclusive: 33.2 µM [cytotoxic, partial curve] | inconclusive: 17.1 µM [cytotoxic, partial curve, poor fit] | inconclusive: 23.5 µM [cytotoxic, single point] | – | – | inconclusive: 27.3 µM [cytotoxic, partial curve] | inconclusive: 8.33 µM [cytotoxic, partial curve] | inconclusive: 37.2 µM [cytotoxic, single point] | –
CC(=O)O[C@]1(C(C)=O)CC[C@H]2[C@@H]3C=C(Cl)C4=CC(=O)[C@@H]5C[C@H]5[C@]4(C)[C@@H]3CC[C@@]21C | active: 16.6 µM | inconclusive: 3.72 µM [cytotoxic, partial curve, poor fit] | active: 12.1 µM | inconclusive: 2.64 µM [cytotoxic, full curve] | – | – | active: 3.43 µM | – | – | –
O=C(Nc1cccnc1)N1CCC(Cc2cccc(Oc3ccc(C(F)(F)F)cn3)c2)CC1 | inconclusive: 18.7 µM [cytotoxic, partial curve] | inconclusive: 11.8 µM [cytotoxic, partial curve] | inactive | inconclusive: 13.2 µM [cytotoxic, partial curve] | active: 10900 nM | – | active: 10.9 µM | – | inconclusive: 18.7 µM [cytotoxic, partial curve] | –
